# From ChEMBL document CHEMBL4888484, “Replenishing the malaria drug discovery pipeline: Screening and hit evaluation of the MMV Hit Generation Library 1 (HGL1) against asexual blood stage Plasmodium falciparum ,using a nano luciferase reporter read-out” (2022)
# About 540 (0.36%) of roughly 150,000 compounds showed an effect of 50% or more. This is one part of the list.
# Tested on: Plasmodium falciparum
# Assay: Primary screen in NF54 nanoGlo assay, in single point, at 2uM, 72h; a lower Z score goes with more inhibition
# Assay type: functional, Erythrocyte
# Conditions: timepoint 72 hour
Compound,% Inhibition,Z score
COc1nn(C)cc1NCc1ccncc1,-6%,0.79
Cc1cccc(S(=O)(=O)N2CCC(n3cnnc3C3CC3)CC2)c1,0%,0.05
O=c1c2ccccc2nc(-c2cccc(OCc3ccccc3)c2)n1Cc1ccc(F)cc1,-3%,0.39
Cn1cccc1[C@H](CNS(=O)(=O)c1ccccc1)N1CCCC1,-5%,0.79
NC(=O)c1csc(N2CC[C@H](N3CCCCCC3)[C@@H](O)C2)n1,2%,-0.2
CCOc1cc(-c2c(C#N)c(N)nc3c2CNCC3)cc(Cl)c1OCC,30%,-3.43
CCc1ccccc1OC1CN(C(=O)CN2CC(=O)NC2=O)C1,-6%,1.07
COc1cccc(CNC(=O)CCCN2C(=O)CCn3nc(-c4cccn4C)cc32)c1,-10%,1.8
O=C(CCCc1ccccc1)N1CC(N(Cc2ccncc2)CC2CC2)C1,3%,-0.49
Cc1ccc(NC(=O)Nc2ccc(Cn3cnc(-c4nc(-c5ccc(C)cc5)no4)c3)cc2)cc1,-13%,1.67
Cc1cccc(C[C@H](C)NC(=O)c2cnc(N)s2)n1,-10%,1.72
Cc1nn(C)c(Cl)c1C(=O)Nc1ccc2ccccc2c1,10%,-1.64
COCCn1nc(C(=O)NCCn2ccnc2)c2c1CCOC2,1%,-0.1
Cc1cc(OC[C@@H](O)COCc2ccccc2)nnc1C,-2%,0.42
Cc1scc(CNC(=O)N2CCC(N(C)C[C@H](C)O)CC2)c1C,0%,0.06
Cc1ccc(Cc2nnn(CCC(=O)Nc3cc(C)on3)n2)cc1,-5%,0.61
Cc1ncn(CCNCc2cccc(OC(F)F)c2)c1C,-15%,1.5
NS(=O)(=O)[C@H]1CCN(C(=O)Nc2ccccc2Oc2ccccc2)C1,-2%,0.37
COc1ccc(-n2cc3cnnc(-c4ccccc4)c3n2)cc1,-2%,0.3
CCCn1c(=O)c2sc(N3CCCCC3)nc2n(CC(=O)NCc2cccc(OC)c2)c1=O,-26%,2.29
O=C(CC[C@H]1CCCN(CCO)C1)N1CCN(c2ccccn2)CC1,-5%,0.91
CC(=O)N1CCC(C(=O)OCCC#Cc2ccccc2)CC1,3%,-0.33
CCOC(=O)c1c(S(=O)(=O)N2CCC[C@H](C(=O)OCC)C2)c(C)n(C)c1C,2%,-0.35
CN(C)C(=O)[C@H](NC(=O)c1ccc(Oc2ccccc2)o1)c1ccccc1,6%,-0.82
CC(C)OC[C@@H](O)CN(C)Cc1nccs1,-7%,0.65
COc1ccc(CCn2nnnc2N2CCC(CO)(OC)CC2)cc1,0%,-0.01
CC1(C)C(=O)NC(=O)N1CC(=O)Nc1ccc(-c2cnc(C3CC3)o2)cc1,-3%,0.36
CS(=O)(=O)[C@H]1CCCN(c2cccc(Br)c2C#N)CC1,9%,-1.75

Compound,% Inhibition,Z score
CCc1c(C)sc(NC(=O)C2CCCC2)c1C#N,-16%,2.24
CCO[C@H]1COC[C@@H]1Nc1ccc(Cl)cn1,-1%,0.27
COc1ccccc1-c1nc2cc(N)cc(C(=O)NCCc3cccs3)c2n1C,-5%,0.56
CCN(CC)C(=O)[C@@H]1CCCN1C(=O)Cc1cccc2ccccc12,-6%,0.9
CC[C@@H](C(=O)OC)N(C(=O)c1ncoc1C(C)C)c1ccccc1,-3%,0.29
O=C(c1cnc(O)cn1)N1CCc2[nH]nc(-c3cccc(Cl)c3Cl)c2C1,-2%,0.3
CC(C)n1ncnc1CN(CC(=O)O)c1ccccc1,-9%,1.27
Cc1c(N)cccc1-c1nc2ccc(F)cc2n1C1CC1,-2%,0.39
N#Cc1ccc(N2CCCn3nc(CCC(=O)N4CCCC4)cc3C2)nc1,-14%,1.75
O=C(C1CCN(C2CCN(CCCc3ccccc3)CC2)CC1)N1CCCCCC1,3%,-0.48
COc1ccc(-c2nc3c(s2)[C@@H](NC(=O)CC2CCN(C)CC2)CCC3)cc1,-11%,1.82
Cc1ccc(C(=O)N(C2CC2)[C@H]2CCNC2)c(O)c1,-1%,0.23
O=C1CC2(CCCC2)CN1[C@@H]1c2ccccc2C2(CCNCC2)[C@H]1O,-9%,1.28
CCn1c([C@@H]2CCCO2)nnc1N(C)Cc1cc(Cl)ccc1F,-4%,0.83
COCc1nc(CCNC(=O)c2cc(C)n(C)n2)no1,-4%,0.53
CCOc1cc(N2CCCC[C@H](N3CCN(C)CC3)C2)ncn1,-11%,1.46
COc1ccc(S(=O)(=O)c2c(N)n(Cc3ccc(C)cc3)c3nc4ccccc4nc23)cc1,-6%,0.56
Cc1nnc(-c2ccccc2C(=O)Nc2cccc(Cl)c2)o1,0%,-0.02
CC[C@H]1CN(S(=O)(=O)c2cccc3nn(C)nc23)CCO1,-2%,0.46
COCCNc1nc(CC(=O)NC2CN(C3CC3)CC2C)cs1 (stereo not given),19%,-2.37
O=C(NC1CCCCC1)N1CCCCC[C@@H]1CN1CCOCC1,-2%,0.36
O=C(CCCc1ccccc1)N1C2C=CCC1CC2 (stereo not given),-4%,0.68
CN(C[C@H]1COc2ccccc2O1)C(=O)c1ccc(-n2cnnn2)cc1,-6%,0.77
NC(=O)CCc1nc(C2CC2)nn1-c1cccc2ccccc12,-9%,1.29
COc1cccc(NC(=O)Cn2cc(-c3ccc(C)cc3)c(N3CCOCC3)n2)c1,-12%,1.36
Cc1nc(NC(=O)c2csnc2C)n[nH]1,-16%,1.42
O=S(=O)(c1ccccc1F)N1CCC[C@@H]1c1nc[nH]n1,5%,-0.64
